About 14,000 (4.5%) of roughly 310,000 compounds showed an effect of 50% or more. Effects have a minus sign here. This is one part of the list.

We go through 56 compounds from publication PMC4336329 (PLoS ONE, 2015).
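Also: peak tail current of the secondary pulse compared with the same well before compound.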

For this test, the target named is human ether-à-go-go-related gene (hERG) potassium channel (human, UniProt Q12809). The test can be described thus: primary screen, population patch clamp on CHO cells stably expressing hERG.
Chain of human ether-à-go-go-related gene (hERG) potassium channel (Q12809 whole entry, looked up): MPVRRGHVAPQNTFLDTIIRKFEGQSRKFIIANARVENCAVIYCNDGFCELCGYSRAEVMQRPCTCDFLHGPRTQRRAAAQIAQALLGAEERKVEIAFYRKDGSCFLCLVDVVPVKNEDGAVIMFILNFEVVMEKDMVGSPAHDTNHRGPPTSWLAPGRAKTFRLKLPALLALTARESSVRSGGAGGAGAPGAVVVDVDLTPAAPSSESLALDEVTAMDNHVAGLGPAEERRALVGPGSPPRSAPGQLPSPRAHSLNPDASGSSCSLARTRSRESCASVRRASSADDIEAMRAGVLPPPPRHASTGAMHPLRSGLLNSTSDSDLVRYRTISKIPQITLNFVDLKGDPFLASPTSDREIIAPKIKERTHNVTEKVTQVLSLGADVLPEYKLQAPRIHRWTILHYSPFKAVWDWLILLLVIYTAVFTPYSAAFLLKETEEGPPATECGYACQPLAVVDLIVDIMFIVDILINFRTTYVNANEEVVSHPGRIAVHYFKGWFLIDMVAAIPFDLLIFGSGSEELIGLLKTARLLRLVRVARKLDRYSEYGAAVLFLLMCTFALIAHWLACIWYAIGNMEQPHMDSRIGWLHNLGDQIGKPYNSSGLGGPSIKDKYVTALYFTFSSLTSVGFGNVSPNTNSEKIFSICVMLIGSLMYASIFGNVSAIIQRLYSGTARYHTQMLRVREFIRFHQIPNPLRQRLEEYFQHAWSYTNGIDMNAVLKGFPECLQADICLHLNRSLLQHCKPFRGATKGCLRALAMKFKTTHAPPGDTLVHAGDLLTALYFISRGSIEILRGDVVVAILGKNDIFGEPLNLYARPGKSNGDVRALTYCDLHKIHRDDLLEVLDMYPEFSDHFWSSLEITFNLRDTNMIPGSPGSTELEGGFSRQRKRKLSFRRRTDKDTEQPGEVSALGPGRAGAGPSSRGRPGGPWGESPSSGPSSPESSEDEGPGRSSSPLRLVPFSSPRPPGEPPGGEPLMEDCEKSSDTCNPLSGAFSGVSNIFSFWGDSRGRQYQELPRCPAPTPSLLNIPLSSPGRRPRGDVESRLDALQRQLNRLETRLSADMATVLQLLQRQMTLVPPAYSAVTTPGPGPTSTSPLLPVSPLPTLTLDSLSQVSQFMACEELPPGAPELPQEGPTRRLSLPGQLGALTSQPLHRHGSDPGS
`Cc1cc(C)c(C)c(OCC(=O)NCc2nc(-c3ccccc3)no2)c1`: the “hERG current change (%, negative = inhibition) at 10uM” value is 16.4%.

For the compound `Cc1ccc(C(=O)O/N=C/c2ccc(N(C)C)cc2)cc1`, the “hERG current change (%, negative = inhibition) at 10uM” value stood at 25.6%.

Turning to `COc1ccc2nc(NC(=O)Cc3ccc(OC)c(S(=O)(=O)N4CCOCC4)c3)sc2c1`, the “hERG current change (%, negative = inhibition) at 10uM” value is -22.1%.

Turning to `COc1ccc(-c2nnc(SCCOc3cccc(C)c3)n2N)cc1`, the “hERG current change (%, negative = inhibition) at 10uM” value came to 5%.

As to `CCN(CC)c1ccc(C(=O)c2cnc(/N=C/N(C)C)s2)cc1`, the “hERG current change (%, negative = inhibition) at 10uM” value is recorded as -10.6%.

As to `Cc1nc2nc(COc3ccccc3)[nH]n2c(=O)c1Cc1ccccc1`, the “hERG current change (%, negative = inhibition) at 10uM” value came out at 0.308%.

As to `CCOc1ccccc1N1CC(C(=O)Nc2ccccc2N2CCOCC2)CC1=O` (centres unmarked), the “hERG current change (%, negative = inhibition) at 10uM” value worked out at 12.5%.

On to `O=C(CSc1ncnc2sc(-c3ccccc3)cc12)NC1CCS(=O)(=O)C1` (centres unmarked), for which the “hERG current change (%, negative = inhibition) at 10uM” value is on record as -2.65%.

`CCOC(=O)N1CCC(N2Cc3cccc(C(=O)Nc4c(C)cccc4CC)c3C2=O)CC1`: the “hERG current change (%, negative = inhibition) at 10uM” value is -77.1%.

For the compound `NC(=O)c1ccc(NC(=O)Cc2ccc(S(=O)(=O)N3CCCCC3)cc2)cc1`, the “hERG current change (%, negative = inhibition) at 10uM” value was found to be 1.92%.

Consider `COC(=O)c1c(NC(=O)c2ccco2)sc2c1CC(C)(C)NC2(C)C`, for which the “hERG current change (%, negative = inhibition) at 10uM” value is -21.2%.

As to `CN(C(=O)COC(=O)c1ccc2c(=O)n3c(nc2c1)CCC3)C1CCS(=O)(=O)C1` (centres unmarked), the “hERG current change (%, negative = inhibition) at 10uM” value came to 10.5%.

Turning to `CC(C)Nc1ccc(-n2nc3ccccc3[n+]2[O-])cc1`, the “hERG current change (%, negative = inhibition) at 10uM” value was 6.09%.

For `O=C(CSc1nnc(CNC(=O)c2c(F)cccc2Cl)o1)Nc1ccccc1`, the “hERG current change (%, negative = inhibition) at 10uM” value is recorded as -3.82%.

Turning to `O=C(COC(=O)c1cncc(Br)c1)NC1CCCCCC1`, the “hERG current change (%, negative = inhibition) at 10uM” value is given as -14.6%.

As to `Cc1ccc(-c2c(C(=O)O)c(C(=O)O)c3n2CSC3)cc1`, the “hERG current change (%, negative = inhibition) at 10uM” value is given as 5.86%.

As to `COc1ccc(NC(=O)CCCn2c(=O)c3sccc3n(Cc3ccc(C)cc3C)c2=O)cc1`, the “hERG current change (%, negative = inhibition) at 10uM” value is listed as -24.2%.

In the case of `COC(=O)c1ccc(NC(=O)CSc2nnc(COc3c(C)cccc3C)o2)cc1`, the “hERG current change (%, negative = inhibition) at 10uM” value was found to be 4.5%.

With `Cc1ccc(S(=O)(=O)N2CCOC2CNC(=O)C(=O)NCc2ccc(Cl)cc2)cc1` (centres unmarked), the “hERG current change (%, negative = inhibition) at 10uM” value is given as 13.1%.

Take `CCOC(=O)COc1ccc(S(=O)(=O)N2CCN(c3ccccc3)CC2)cc1`: the “hERG current change (%, negative = inhibition) at 10uM” value is given as -39%.

As for `Cc1ccc(SCCC(=O)Nc2cc(C)on2)cc1`, the “hERG current change (%, negative = inhibition) at 10uM” value was 7.42%.

Turning to `Cc1cc(C)n2nc(SCC(=O)N3CCC4(CC3)OCCO4)nc2n1`, the “hERG current change (%, negative = inhibition) at 10uM” value stood at 11%.

For the compound `C/C(Cc1ccccc1)=N\NC(=O)c1ccc(F)cc1`, the “hERG current change (%, negative = inhibition) at 10uM” value is 22.8%.

In the case of `COc1ccc(OC)c(NC(=O)CSc2nnc(-c3ccco3)n2-c2ccc(C(=O)O)cc2)c1`, the “hERG current change (%, negative = inhibition) at 10uM” value is -3.68%.

Turning to `CC1(c2ccccc2Cl)NC(=O)N(CC(=O)Nc2cccnc2Cl)C1=O` (centres unmarked), the “hERG current change (%, negative = inhibition) at 10uM” value is given as -1.42%.

Turning to `COCCCNC(=O)C1CC(=O)OC1c1ccc(OC)c(OC)c1` (centres unmarked), the “hERG current change (%, negative = inhibition) at 10uM” value came out at 5.42%.

In the case of `N#Cc1c(C(F)(F)F)cc(Cc2ccccc2)nc1SCC(=O)NCC(=O)O`, the “hERG current change (%, negative = inhibition) at 10uM” value is given as -0.926%.

Consider `COc1ccccc1-n1c(O)c(/C=N/N2CCCCC2)c(=O)n(-c2ccccc2OC)c1=S`, for which the “hERG current change (%, negative = inhibition) at 10uM” value came to 8.1%.

As to `O=C1NCC(O)=C1C=NCCO`, the “hERG current change (%, negative = inhibition) at 10uM” value is listed as -10.4%.

Regarding `c1ccc(CN(Cc2cccs2)C(c2cccs2)c2nnnn2C2CCCC2)cc1` (centres unmarked), the “hERG current change (%, negative = inhibition) at 10uM” value is recorded as -5.48%.

Turning to `CCN(CC)c1ccc(CNCCc2ccccc2F)cc1.Cl`, the “hERG current change (%, negative = inhibition) at 10uM” value is -5.46%.

On to `CCOc1cc(C2NC(=S)NC(C)=C2C(=O)Nc2ccccc2)ccc1O` (centres unmarked), for which the “hERG current change (%, negative = inhibition) at 10uM” value was found to be 23.2%.

For `Cc1cc(C)c(C#N)c(=N)o1`, the “hERG current change (%, negative = inhibition) at 10uM” value stood at 6.34%.

Turning to `O=C(Nc1nc(-c2cccs2)c(C(=O)C(F)(F)F)s1)c1ccco1`, the “hERG current change (%, negative = inhibition) at 10uM” value is 22.7%.

`Cc1cc(OCC(=O)NCCCn2ccnc2)c2c(C)c(C)c(=O)oc2c1`: the “hERG current change (%, negative = inhibition) at 10uM” value is -63.6%.

As for `NC(=O)COc1ccccc1/C=C1/SC(=O)N(CC(=O)N2CCc3ccccc3C2)C1=O`, the “hERG current change (%, negative = inhibition) at 10uM” value is reported as -23.7%.

`CCN(CC)c1ccc(NC(=O)c2ccccc2F)cc1S(=O)(=O)Nc1ccccc1OC`: the “hERG current change (%, negative = inhibition) at 10uM” value came to 4.31%.

For `Cn1c(N)c(-c2ccccc2)c2ccc([N+](=O)[O-])cc2c1=O`, the “hERG current change (%, negative = inhibition) at 10uM” value was found to be 15.3%.

Take `CCOc1ccc(S(=O)(=O)N2CCC(C(=O)NCCc3ccc(S(N)(=O)=O)cc3)CC2)cc1`: the “hERG current change (%, negative = inhibition) at 10uM” value is 20.4%.

For the compound `CCCc1[nH]nc2c1C(C1CC=CCC1)C(C#N)=C(N)O2` (centres unmarked), the “hERG current change (%, negative = inhibition) at 10uM” value is on record as -44.4%.

In the case of `COC(=O)C1CCN(C(=O)COC(=O)c2cccc(NS(=O)(=O)c3ccccc3)c2)CC1`, the “hERG current change (%, negative = inhibition) at 10uM” value is -17.6%.

Regarding `O=C(N/N=C/c1ccccn1)c1cccs1`, the “hERG current change (%, negative = inhibition) at 10uM” value is recorded as 41%.

For the compound `COc1ccc2c(c1)c1nc3ccccc3nc1n2CCn1c(=O)oc2ccccc21`, the “hERG current change (%, negative = inhibition) at 10uM” value was determined as 16.6%.

For the compound `CCOC(=O)C1C(c2ccccc2)C(C(=O)OCC)C1c1ccccc1` (centres unmarked), the “hERG current change (%, negative = inhibition) at 10uM” value was found to be 16.1%.

Consider `COc1cc(C(=O)Nc2ccc3c(c2)CCCN3C(=O)c2ccco2)c([N+](=O)[O-])cc1OC`, for which the “hERG current change (%, negative = inhibition) at 10uM” value was -27.6%.

As for `Cc1ccc(S(=O)(=O)NC(=O)COc2ccc(Cl)cc2Cl)cc1`, the “hERG current change (%, negative = inhibition) at 10uM” value turned out to be 17.3%.

`Cc1ccc2ncnc(-c3ccccc3)c2c1`: the “hERG current change (%, negative = inhibition) at 10uM” value came to 15.6%.

On to `Cc1ccccc1NC(=O)c1sc(Cl)nc1-c1ccccc1`, for which the “hERG current change (%, negative = inhibition) at 10uM” value was -8.92%.

In the case of `CCOC(=O)Nc1ccc(NC(=O)OCC)cc1`, the “hERG current change (%, negative = inhibition) at 10uM” value is given as 17.4%.

Turning to `O=C(NC1CCCCCCC1)c1ccccc1O`, the “hERG current change (%, negative = inhibition) at 10uM” value was -6.11%.

Take `CCc1ccc(C(=O)N2CCCN(C)CC2)s1`: the “hERG current change (%, negative = inhibition) at 10uM” value was -5.7%.

As for `CC(C)CC1c2[nH]c3ccccc3c2CCN1CCCn1cccn1` (centres unmarked), the “hERG current change (%, negative = inhibition) at 10uM” value is on record as -63.1%.

Turning to `CC(=O)NC(=S)Nc1ccccc1C(=O)Nc1ccccc1`, the “hERG current change (%, negative = inhibition) at 10uM” value is given as 11.2%.

For the compound `COc1ccc2nc(-c3ccccc3)cc(OC)c2c1`, the “hERG current change (%, negative = inhibition) at 10uM” value is on record as -5.23%.

With `O=C(c1ccc2ccccc2c1)N1CCN(c2ccc([N+](=O)[O-])c(N3CCOCC3)c2)CC1`, the “hERG current change (%, negative = inhibition) at 10uM” value is reported as -18.8%.

With `O=C(NCc1ccccn1)c1ccc2ccccc2n1`, the “hERG current change (%, negative = inhibition) at 10uM” value is -34.8%.
